# Experimental data from article PMC10726135.
# The other results are listed elsewhere or left out. At the low end of the ranking, values are background and their order means little. Measured with an extract: partners may take part in the binding.
# Biological target: T1, HNF4alpha2 (COS-7 nuclear extract) (UniProt P41235)
# T1 sequence: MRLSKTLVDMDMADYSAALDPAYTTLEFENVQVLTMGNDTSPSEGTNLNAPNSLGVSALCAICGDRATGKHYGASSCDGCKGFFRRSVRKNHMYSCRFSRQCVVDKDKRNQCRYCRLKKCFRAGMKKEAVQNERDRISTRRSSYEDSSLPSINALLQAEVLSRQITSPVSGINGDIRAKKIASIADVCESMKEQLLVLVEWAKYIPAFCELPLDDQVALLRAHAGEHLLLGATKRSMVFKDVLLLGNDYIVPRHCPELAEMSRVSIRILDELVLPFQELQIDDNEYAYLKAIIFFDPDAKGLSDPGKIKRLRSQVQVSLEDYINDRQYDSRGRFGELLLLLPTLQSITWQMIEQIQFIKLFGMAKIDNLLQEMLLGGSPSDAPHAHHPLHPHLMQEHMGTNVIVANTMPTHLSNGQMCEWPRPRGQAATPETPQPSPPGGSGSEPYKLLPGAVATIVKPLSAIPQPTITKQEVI
# Test: protein-binding microarray
# Details: COS-7 nuclear extract on double-stranded Agilent 4x180k PBM; binding buffer, salt, pH and temperature not given; high values mean tight binding; double strand, one strand shown; sequences stand for … in …GCCTAGGGAGATTAGAGTATCGGTCGA
row,Sequence,binding signal (log2 normalized intensity)
1,CCTAAAAATTATCTTTATCTTTTCACTTTT,1.22
2,TAATTTTCAACCTCTTTCTCTTTGATGTAA,1.57
3,GACCTTTGATATTTGTGCCTAGTGGAAGGT,4.06
4,TTATCAGCAGTGACTTGAGAGGCCAGTTTC,0.527
5,CTCCTCAACCTCTCCAATGCTATGCTTTTA,-1.02
6,CATTTGCTCCCAGTGCACACAGACTTTTGT,0.601
7,GGATGTGGGGTATCAGGTGGTGATGGTGGG,1.56
8,GTGCAGTATCCCAGGGACTTACTCAACTAG,-1.1
9,ACTTTGGGGAAATGACCTTTGTCCAGCTGT,6.74
10,GAAAATCAAAGACTCAGATGAGTTTCTTCA,-0.976
11,TGCAGTAAATGGACAGACACACCCTTCAGA,-1.04
12,AGCTGGCACAGCAGATGCTGGGCAAAGGGC,3.17
13,TTCCCCAGTGAGGATGTGTGCTCGAGGTGG,1.38
14,CTTCCCCAAACTAGGAGAGTGGACTCACAG,2.14
15,CTGAGTTACAGATAAGCAGAAGGTCAGGTG,1.53
16,GCGTATTTCAACCTTTGATCTATAACCACG,4.84
17,AGGTCCAAACTTCTCCACTCTTCATAATTA,0.806
18,TCCAGGCTGCACAGTGGGGAGGGCAGGGTC,1.31
19,GGAAGAGAAGACCAAACAACCAGGGAGATG,-1.11
20,AACAAACAGTACATTCTGGAATGATACGCC,-1.23
21,ATCGAAGTCTGGGAAGCTGTGTGAAGTGAC,0.601
22,CCAAAGAAGAAAACAATGACCTCTGCACCC,5.17
23,ATAACCATCAAATCCTCGGAAGACGCACCT,-1.1
24,CGAGATCAAGGGACAGAGATAACTGGGGGC,-1.25
25,CTGCCTGTCTCACCTCGCTATCACCCCGAT,2.84

row,Sequence,binding signal (log2 normalized intensity)
1,TCTGTTGGTGGCACAGGGAATGGCTCGTAT,0.887
2,TGTGATGTTTGTAAACTGTCATGGTGCTGG,1.66
3,GTGTTGTGCTGACCTCCTGTCTCATCCTGT,1.81
4,ACGATCAGCCAGCAGGGGGCGCAGAAGGGA,-1.06
5,TTCCAAAGTTCAACCTCATTATCTTCAGTC,1.7
6,GTGAGGCATCTGGACCATTGCTGACCTTGC,3.01
7,AGGTGTCAGGGGTCAATGTGCACATTCGAA,4.3
8,ATGTGGGGAAACTGGACTGTAATTTGTGGT,1.43
9,GTCTGCCCTCCATGTAACCCCTTTTCAATT,3.4
10,TAAAGTCTGCTATCTAAAAGCTTATCTGCA,-1.11
11,ATGTTTTCACCAAGAGGGAAAAGATGGTCT,0.691
12,AACAAATAAATAAGAAGCCTTATCAGTATC,-1.34
13,CGGTGGGACTAAATTCTGCGGCGGAAGGAC,-0.376
14,TTGACTGAGACTGCCTCAAACAGCTTCGCC,-1.14
15,AACAGGTCCTGCTGGTTTGCCATTTGGAGA,0.965
16,GTATGAGGGTGAAGTTTGGCAATTACCCAA,-0.771
17,TTGCCTAAAGGGGATTTTCTCAGCTCTCCT,-1.06
18,ACGGTGGGCACCTCATACTATACCTGATAG,-1.04
19,GGATCAAAGGAGCTGGGCCTGTGCTGGGGA,-1.09
20,CTGAGCCCTTATCTTTTTAGCAACTGGTAT,1.73
21,AAAGAAGAAGTGAAAAGTCGTTTTCAGTGT,1.19
22,CAGTCCTCTGCTTATCTGGCCTGCTGGGAA,0.246
23,CCTTTGGCATTGTGTTACGTCTGGTTTCTT,1.95
24,TTACGTAAGTGAAAGTACACAGTGCCTGCT,-1.17
25,TATCATCCCTATCACTCAAGAAATGGCAGT,0.313

row,Sequence,binding signal (log2 normalized intensity)
1,CTTACCCCTTTGCTGATTACCTCAACTCCC,1.23
2,AGTTATCTAAGACCCATCCCTCAGGGTCCA,3.12
3,ACAGAGAGGCTTCTGGCCAGGCAGAGCAGG,-1.16
4,AAAGGCCTTTGAAGCTTGAAGGAGTATATG,1.06
5,GCTGCGGATCAAAGGAGCTGGGCCTGTGCT,-1.15
6,GTCTCTTCCTCAGTTTGTTCTTGGGGCCCA,1.55
7,ACGGAGCTGCCTCACATGAGCTAGAGCTCG,-1.16
8,GACAGTGAGACGCAAGCATATCTCTAGATC,-1.15
9,ACATGTCAAAGGTCAAAGGGCATAGCCTCA,5.53
10,GGACTCTGCCCTTAGCAGTGGGAGACAGGC,2.51
11,CTGTGTCAAAAATCAGGGACAAAGTCCAAA,6.06
12,AGTCTCTAGCCCCGCCCAGATGTCTGGCTA,2.39
13,CTAACCTTTGAACCAGATGGCCCTCTCCAA,2.52
14,CAGAAGCTGAGCTCCCCCAGTGAGCAATTC,2.64
15,AAGTTTGTTTCTTATCACACAGTCAACATG,1.02
16,TTTGGTGAAACTCCACTACATTAGCAGCGC,-0.823
17,TGAGTCACTTGGTTTTCACAACCTCCCTTT,1.98
18,GCTCTGCGCAGGCGCAGTCCTCTCTCGCGA,-1.19
19,GGTTACACAGTATGTTAATGGCAGAATCAA,1
20,GAAAAGGCAGCAGCTTGGAATGTCAGGAAC,-1.11
21,AAGATTTCAGTAGCAAACCAATTCGCATAG,-1.04
22,GCCTCCTGGCTGGGCAGGCTCCCTCCCTGG,-1.07
23,AAAATATCTGATCGATATCCTAACCATGCC,-1.09
